# Reference: the supplement of paper PMC8728848
# Some of the results follow.
# B1: MGL2 (Mus musculus), Q8JZN1 (protein)
# chain: MTMRYENFQNLEREEKNQEMRNGDKKGGMESPKFALIPSQSFLWRILSWTHLLLFSLGLSLLLLVVISVIGSQNSQLRRDLGTLRAILDNTTSKIKAEFQSLDSRADNFEKGISSLKVDVEDHRQELQAGRDLSQKVTSLESTLEKREQALKTDLSDLTDHVQQLETDLKALTCQLANLKNNGSEVACCPLHWTEHEGSCYWFSESEKSWPEADKYCRLENSHLVVVNSLEEQNFLQNRLANVLSWMGLTDQNGPWRWVDGTDFDKGFKNWRPLQPDNWHGHMLGGGEDCAHFSYDGRWNDDVCQRHYHWICETELGKASSAHSPQLIASVP
# Legend:
# Experiment in all cases: glycan array binding signal (z-score within array); higher = stronger binding
# Conditions in all cases: glycan notation: IUPAC condensed, linker removed
# [1] = biological target: Neu5Ac(a2-3)Gal(b1-4)GlcNAc(b1-3)[Neu5Ac(a2-3)Gal(b1-4)GlcNAc(b1-6)]GalNAc
# Outline: (§1)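 Glycan array data came from 3228 arrays in the Consortium for Functional Glycomics database, and only arrays with an available protein sequence were kept. Glycan names were put into IUPAC-condensed notation, and columns mapping to the same glycan were averaged. The binding signal is a within-array Z-score, averaged across arrays of one protein sequence run at different concentrations or buffers and across linkers. A negative Z-score can be read as non-binding.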
# [2] = biological target: Neu5Ac(a2-3)Gal(b1-4)GlcNAc(b1-6)GalNAc
# Outline: as §1
# [3] = biological target: Neu5Ac(a2-3)Gal(b1-4)GlcNAc(b1-6)[Gal(b1-3)]GalNAc
# Outline: as §1
# [4] = biological target: Neu5Ac(a2-3)Gal(b1-4)GlcNAc(b1-6)[Neu5Ac(a2-3)Gal(b1-3)]GalNAc
# Outline: as §1
# [5] = biological target: Neu5Ac(a2-3)Gal(b1-4)GlcNAc6S
# Outline: as §1
# [6] = biological target: Neu5Ac(a2-3)Gal(b1-4)[Fuc(a1-3)]GlcNAc
# Outline: as §1
# [7] = biological target: Neu5Ac(a2-3)Gal(b1-4)[Fuc(a1-3)]GlcNAc(b1-2)Man
# Outline: as §1
# [8] = biological target: Neu5Ac(a2-3)Gal(b1-4)[Fuc(a1-3)]GlcNAc(b1-3)Gal
# Outline: as §1
# [9] = biological target: Neu5Ac(a2-3)Gal(b1-4)[Fuc(a1-3)]GlcNAc(b1-3)Gal(b1-4)GlcNAc
# Outline: as §1
# [10] = biological target: Neu5Ac(a2-3)Gal(b1-4)[Fuc(a1-3)]GlcNAc(b1-3)Gal(b1-4)[Fuc(a1-3)]GlcNAc(b1-3)Gal(b1-4)[Fuc(a1-3)]GlcNAc
# Outline: as §1
# [11] = biological target: Neu5Ac(a2-3)Gal(b1-4)[Fuc(a1-3)]GlcNAc(b1-3)GalNAc
# Outline: as §1
# [12] = biological target: Neu5Ac(a2-3)Gal(b1-4)[Fuc(a1-3)]GlcNAc(b1-6)[Gal(b1-3)]GalNAc
# Outline: as §1
# [13] = biological target: Neu5Ac(a2-3)Gal(b1-4)[Fuc(a1-3)]GlcNAc(b1-6)[Neu5Ac(a2-3)Gal(b1-3)]GalNAc
# Outline: as §1
# [14] = biological target: Neu5Ac(a2-3)Gal(b1-4)[Fuc(a1-3)]GlcNAc6S
# Outline: as §1
# [15] = biological target: Neu5Ac(a2-3)Gal6S(b1-4)GlcNAc
# Outline: as §1
# [16] = biological target: Neu5Ac(a2-3)Gal6S(b1-4)[Fuc(a1-3)]GlcNAc
# Outline: as §1
# [17] = biological target: Neu5Ac(a2-3)GalNAc
# Outline: as §1
# [18] = biological target: Neu5Ac(a2-3)GalNAc(b1-4)GlcNAc
# Outline: as §1
# [19] = biological target: Neu5Ac(a2-3)[GalNAc(b1-4)]Gal(b1-4)Glc
# Outline: as §1
# [20] = biological target: Neu5Ac(a2-3)[GalNAc(b1-4)]Gal(b1-4)GlcNAc
# Outline: as §1
# [21] = biological target: Neu5Ac(a2-3)[GalNAc(b1-4)]Gal(b1-4)GlcNAc(b1-3)GalNAc
# Outline: as §1
# [22] = biological target: Neu5Ac(a2-3)[Neu5Ac(a2-6)]GalNAc
# Outline: as §1
# [23] = biological target: Neu5Ac(a2-6)Gal
# Outline: as §1
# [24] = biological target: Neu5Ac(a2-6)Gal(b1-3)GlcNAc(b1-3)[Gal(b1-4)GlcNAc(b1-6)]Gal(b1-4)Glc
# Outline: as §1
# [25] = biological target: Neu5Ac(a2-6)Gal(b1-4)Glc
# Outline: as §1
# [26] = biological target: Neu5Ac(a2-6)Gal(b1-4)GlcNAc
# Outline: as §1
# [27] = biological target: Neu5Ac(a2-6)Gal(b1-4)GlcNAc(b1-2)Man
# Outline: as §1
# [28] = biological target: Neu5Ac(a2-6)Gal(b1-4)GlcNAc(b1-2)Man(a1-3)Man(b1-4)GlcNAc(b1-4)GlcNAc
# Outline: as §1
# [29] = biological target: Neu5Ac(a2-6)Gal(b1-4)GlcNAc(b1-2)Man(a1-3)[Gal(b1-4)GlcNAc(b1-2)Man(a1-6)]Man(b1-4)GlcNAc(b1-4)GlcNAc
# Outline: as §1
# [30] = biological target: Neu5Ac(a2-6)Gal(b1-4)GlcNAc(b1-2)Man(a1-3)[GlcNAc(b1-2)Man(a1-6)]Man(b1-4)GlcNAc(b1-4)GlcNAc
# Outline: as §1
# [31] = biological target: Neu5Ac(a2-6)Gal(b1-4)GlcNAc(b1-2)Man(a1-3)[GlcNAc(b1-4)][Neu5Ac(a2-6)Gal(b1-4)GlcNAc(b1-2)Man(a1-6)]Man(b1-4)GlcNAc(b1-4)GlcNAc
# Outline: as §1
binder,measurement,setting,value
B1,glycan array binding signal (z-score),[1],-0.145
same,glycan array binding signal (z-score),[2],0.616
same,glycan array binding signal (z-score),[3],-0.046
same,glycan array binding signal (z-score),[4],-0.271
same,glycan array binding signal (z-score),[5],-0.289
same,glycan array binding signal (z-score),[6],-0.231
same,glycan array binding signal (z-score),[7],-0.115
same,glycan array binding signal (z-score),[8],-0.247
same,glycan array binding signal (z-score),[9],-0.189
same,glycan array binding signal (z-score),[10],-0.059
same,glycan array binding signal (z-score),[11],-0.085
same,glycan array binding signal (z-score),[12],-0.139
same,glycan array binding signal (z-score),[13],-0.036
same,glycan array binding signal (z-score),[14],-0.25
same,glycan array binding signal (z-score),[15],-0.227
same,glycan array binding signal (z-score),[16],-0.203
same,glycan array binding signal (z-score),[17],-0.214
same,glycan array binding signal (z-score),[18],-0.269
same,glycan array binding signal (z-score),[19],-0.141
same,glycan array binding signal (z-score),[20],-0.207
same,glycan array binding signal (z-score),[21],-0.236
same,glycan array binding signal (z-score),[22],-0.23
same,glycan array binding signal (z-score),[23],-0.168
same,glycan array binding signal (z-score),[24],-0.183
same,glycan array binding signal (z-score),[25],-0.144
same,glycan array binding signal (z-score),[26],-0.205
same,glycan array binding signal (z-score),[27],-0.19
same,glycan array binding signal (z-score),[28],-0.247
same,glycan array binding signal (z-score),[29],-0.14
same,glycan array binding signal (z-score),[30],-0.285
same,glycan array binding signal (z-score),[31],-0.254
